In paper PMC4336329 (PLoS ONE, 2015):
Hit rate of the full screen: of about 310,000 compounds, about 2,200 (0.71%) showed an effect of 50% or more. Effects have a minus sign here. This is one part of the list.

Each molecule was assayed against human ether-à-go-go-related gene (hERG) potassium channel (human, UniProt Q12809) (assay: primary screen, population patch clamp on CHO cells stably expressing hERG).
Sequence of human ether-à-go-go-related gene (hERG) potassium channel (Q12809 whole entry, looked up): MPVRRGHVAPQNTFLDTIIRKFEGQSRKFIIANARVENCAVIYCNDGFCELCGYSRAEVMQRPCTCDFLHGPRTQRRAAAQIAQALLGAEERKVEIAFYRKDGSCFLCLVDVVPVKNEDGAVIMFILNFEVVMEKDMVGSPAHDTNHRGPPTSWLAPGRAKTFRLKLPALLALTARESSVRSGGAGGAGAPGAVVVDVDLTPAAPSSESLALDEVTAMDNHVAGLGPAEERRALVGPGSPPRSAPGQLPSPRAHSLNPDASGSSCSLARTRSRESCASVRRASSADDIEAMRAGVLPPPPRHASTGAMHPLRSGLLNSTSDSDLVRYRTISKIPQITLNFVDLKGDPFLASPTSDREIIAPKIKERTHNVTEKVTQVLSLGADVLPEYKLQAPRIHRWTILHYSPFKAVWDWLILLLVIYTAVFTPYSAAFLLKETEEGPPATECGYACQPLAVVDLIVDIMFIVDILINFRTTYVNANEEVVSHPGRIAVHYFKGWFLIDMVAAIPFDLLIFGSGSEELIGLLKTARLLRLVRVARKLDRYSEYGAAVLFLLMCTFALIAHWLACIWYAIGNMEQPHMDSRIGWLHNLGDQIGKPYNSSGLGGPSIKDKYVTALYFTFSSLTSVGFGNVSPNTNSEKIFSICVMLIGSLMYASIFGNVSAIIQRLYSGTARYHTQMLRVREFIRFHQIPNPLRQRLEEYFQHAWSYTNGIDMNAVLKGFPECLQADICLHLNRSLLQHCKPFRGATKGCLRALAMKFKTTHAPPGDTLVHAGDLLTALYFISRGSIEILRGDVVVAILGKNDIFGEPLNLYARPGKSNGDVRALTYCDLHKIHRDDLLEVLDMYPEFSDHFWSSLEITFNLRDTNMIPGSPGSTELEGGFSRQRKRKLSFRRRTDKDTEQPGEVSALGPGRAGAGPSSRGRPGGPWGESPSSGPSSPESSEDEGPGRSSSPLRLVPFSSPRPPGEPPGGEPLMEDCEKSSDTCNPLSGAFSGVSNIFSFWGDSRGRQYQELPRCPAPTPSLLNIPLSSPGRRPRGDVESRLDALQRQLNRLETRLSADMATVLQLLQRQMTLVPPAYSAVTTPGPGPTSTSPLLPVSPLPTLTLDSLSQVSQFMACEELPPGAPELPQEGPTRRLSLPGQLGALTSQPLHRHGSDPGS
For `Cc1cc(-c2nn(-c3ccccc3F)cc2CNCCc2cnccn2)c(C)s1`, the “hERG current change (%, negative = inhibition) at 1uM” value was -2.82%. `COc1ccc(CCNc2ncccc2C#N)cc1OC` was tested, and the “hERG current change (%, negative = inhibition) at 1uM” value was 9.52%. For `CC(=O)N1CCC(N(CCN2CCOCC2)C(=S)Nc2ccc(C)cc2C)CC1`, the “hERG current change (%, negative = inhibition) at 1uM” value was 4.82%. With `O=S(=O)(c1cc(F)cc(F)c1)N1CCN(c2ncccn2)CC1` the “hERG current change (%, negative = inhibition) at 1uM” value was 10.7%. In the case of `CCC(=O)NC(=S)Nc1ccccc1OC`, the “hERG current change (%, negative = inhibition) at 1uM” value is reported as -15.8%. In the case of `O=C(NCC1CCCO1)C1CC(c2ccccc2Cl)=NO1` (stereo not shown), the “hERG current change (%, negative = inhibition) at 1uM” value is reported as -2.62%. `COc1ccc(CN2CCN(C(=O)CC(C)C)CC2)cc1OC` was tested, and the “hERG current change (%, negative = inhibition) at 1uM” value was 5.56%. In the case of `Cc1cc(-c2n[nH]c(=S)n2Cc2ccco2)n(C)n1`, the “hERG current change (%, negative = inhibition) at 1uM” value is reported as 15.1%. In the case of `COc1ccc(-c2cc(C(=O)Nc3ccc(Br)cc3)no2)cc1`, the “hERG current change (%, negative = inhibition) at 1uM” value is reported as 6.41%. With `O=C(CN(c1cccc(Br)c1)S(=O)(=O)c1ccccc1)N/N=C/c1cc([N+](=O)[O-])ccc1O` the “hERG current change (%, negative = inhibition) at 1uM” value was 5.12%. For `CC(=O)N1N=C(c2ccccc2)CC1c1ccc2c(c1)OCO2` (stereo not shown), the “hERG current change (%, negative = inhibition) at 1uM” value was 15.8%. For `COC(=O)c1ccc(Cl)c(NC(=O)CN(c2ccc(OC)c(OC)c2)S(C)(=O)=O)c1`, the “hERG current change (%, negative = inhibition) at 1uM” value was 6.68%. In the case of `CCCOC1CCCN(C(=O)c2cc(COc3c(F)cccc3F)on2)C1` (stereo not shown), the “hERG current change (%, negative = inhibition) at 1uM” value is reported as -1.24%. In the case of `CCOC(=O)N1CCC(n2c(SCC(=O)NCCC3=CCCCC3)nc3ccccc3c2=O)CC1`, the “hERG current change (%, negative = inhibition) at 1uM” value is reported as -2.01%. For `O=C(O)C1Oc2cc3ccccc3cc2O1`, the “hERG current change (%, negative = inhibition) at 1uM” value was 4.54%. For `COC(=O)c1ccc(C(=O)OC)c(NC(=O)CN(C)Cc2cccc(Cl)c2Cl)c1`, the “hERG current change (%, negative = inhibition) at 1uM” value was 3.91%. With `CCCS(=O)(=O)N1CCCC(C(=O)NCc2ccc3c(c2)OCO3)C1` (stereo not shown) the “hERG current change (%, negative = inhibition) at 1uM” value was 6.43%. With `CC(C)Oc1ccc(C(CC(=O)O)NC(=O)CSc2ncn[nH]2)cc1` (stereo not shown) the “hERG current change (%, negative = inhibition) at 1uM” value was 3.85%. `COC(=O)CSc1ccc2nnc(-c3ccc(F)cc3)n2n1` was tested, and the “hERG current change (%, negative = inhibition) at 1uM” value was -25.6%. `COc1ccc(CNCCc2ccc(Cl)cc2)cc1OCc1ccccc1` was tested, and the “hERG current change (%, negative = inhibition) at 1uM” value was -52.2%. `CNC(=S)NNC(=O)Cc1ccc(OC)c(OC)c1` was tested, and the “hERG current change (%, negative = inhibition) at 1uM” value was 1.59%. For `CN(C)c1ccc(NC(=S)N(CCc2ccccc2)C2CC(=O)N(c3c(Cl)cccc3Cl)C2=O)cc1` (stereo not shown), the “hERG current change (%, negative = inhibition) at 1uM” value was 1.88%. `COc1ccc(CCN(C)C2CCCN(C(=O)Cn3cccn3)C2)cc1OC` (stereo not shown) was tested, and the “hERG current change (%, negative = inhibition) at 1uM” value was 4.24%. `COc1ccccc1C(=O)COC(=O)c1cc(S(=O)(=O)N2CCCCC2)ccc1N1CCOCC1` was tested, and the “hERG current change (%, negative = inhibition) at 1uM” value was 14.1%. With `CCCCc1ccc(NC(=O)N2CCN(c3cc(C)nc4ccccc34)CC2)c(C)c1` the “hERG current change (%, negative = inhibition) at 1uM” value was 4.71%.
